Molecules are shown by their SMILES. The campaign covered roughly 310,000 compounds. About 14,000 (4.5%) showed an effect of 50% or more. The effect is printed as a negative number. The list shows a part of the results.

These results are taken from PMC4336329 (PLoS ONE, 2015).
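Further: peak tail current of the secondary pulse compared with the same well before compound.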

The target in this test is human ether-à-go-go-related gene (hERG) potassium channel (human, UniProt Q12809). The experiment in a line: primary screen, population patch clamp on CHO cells stably expressing hERG.
Chain of human ether-à-go-go-related gene (hERG) potassium channel (Q12809 whole entry, looked up): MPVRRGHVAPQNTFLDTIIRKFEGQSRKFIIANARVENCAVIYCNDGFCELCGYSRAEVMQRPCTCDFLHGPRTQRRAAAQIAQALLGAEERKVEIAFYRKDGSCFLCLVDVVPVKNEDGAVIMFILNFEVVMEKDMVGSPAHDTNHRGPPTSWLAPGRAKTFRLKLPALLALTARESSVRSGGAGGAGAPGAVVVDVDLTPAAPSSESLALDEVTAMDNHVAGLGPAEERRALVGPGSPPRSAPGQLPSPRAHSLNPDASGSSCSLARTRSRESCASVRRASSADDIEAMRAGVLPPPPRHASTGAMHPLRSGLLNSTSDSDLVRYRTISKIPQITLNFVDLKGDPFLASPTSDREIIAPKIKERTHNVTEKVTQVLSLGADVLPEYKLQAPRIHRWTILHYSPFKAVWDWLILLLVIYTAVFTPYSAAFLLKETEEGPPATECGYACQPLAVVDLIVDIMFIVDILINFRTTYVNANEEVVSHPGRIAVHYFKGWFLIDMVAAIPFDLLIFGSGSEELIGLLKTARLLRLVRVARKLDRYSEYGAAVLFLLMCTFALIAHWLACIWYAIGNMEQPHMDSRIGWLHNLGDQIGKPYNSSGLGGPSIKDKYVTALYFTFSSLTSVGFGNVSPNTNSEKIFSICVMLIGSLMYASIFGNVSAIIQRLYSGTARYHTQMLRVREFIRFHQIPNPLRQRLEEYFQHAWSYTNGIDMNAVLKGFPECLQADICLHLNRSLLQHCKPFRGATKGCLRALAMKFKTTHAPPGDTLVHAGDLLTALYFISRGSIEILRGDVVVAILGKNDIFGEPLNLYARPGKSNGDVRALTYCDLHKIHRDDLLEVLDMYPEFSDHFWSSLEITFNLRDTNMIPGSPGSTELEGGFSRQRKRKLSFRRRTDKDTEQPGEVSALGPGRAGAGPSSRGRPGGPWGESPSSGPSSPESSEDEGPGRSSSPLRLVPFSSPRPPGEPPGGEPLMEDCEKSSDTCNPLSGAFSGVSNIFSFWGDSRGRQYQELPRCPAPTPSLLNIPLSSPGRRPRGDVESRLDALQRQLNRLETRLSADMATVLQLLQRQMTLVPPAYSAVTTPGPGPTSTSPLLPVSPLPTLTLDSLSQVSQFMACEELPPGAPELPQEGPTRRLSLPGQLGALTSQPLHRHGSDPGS
Turning to `O=C1COc2ccc(OCc3ccc(F)cc3)cc21`, the “hERG current change (%, negative = inhibition) at 10uM” value was -6.89%. Consider `CCn1ccnc1CNC(=O)c1ccc2oc(CCCc3ccccc3)nc2c1`, for which the “hERG current change (%, negative = inhibition) at 10uM” value is recorded as -45.4%. To `COc1cc(/C=N/NC(=O)c2ccc(CSc3nncn3C)cc2)ccc1OCC(=O)N1CC(C)OC(C)C1` (stereo not shown) belongs -0.599%; to `Cc1ccc2c(c1)N(CC(=O)Nc1ncccc1C)C(=O)C(C(C)C)O2` (stereo not shown), 14.4%.

On to `COc1ccccc1N(CC(=O)NCCc1ccccc1)C(=O)CCC(=O)Nc1ccccn1`, for which the “hERG current change (%, negative = inhibition) at 10uM” value is reported as -13.9%. To `COC(=O)C1=CO[C@@H](C)[C@@H]2CN(CCc3c[nH]c4ccccc34)CC[C@H]12` belongs -57%; to `COc1ccc(C2c3[nH]c4ccccc4c3CCN2C(=O)c2ccc(=O)n(C)n2)c(F)c1` (stereo not shown), -1.88%; to `Cc1ccc(CC(=O)NCCS(=O)c2ccc(Cl)cc2)cc1` (stereo not shown), -13.5%. The result for `O=C1NC(=Nc2cccc(Cl)c2)SC1Cc1cccc(Cl)c1Cl` (stereo not shown) reads 13%; that for `O=C1C2C3C=CC(CC3)C2C(=O)N1c1ccc(Cl)cc1` (stereo not shown), 16.7%.

As for `Cc1ccc(OCc2cc(C(=O)NCc3cn4ccccc4n3)no2)cc1C`, the “hERG current change (%, negative = inhibition) at 10uM” value is reported as -38.7%. With `COc1ccc(CN2C3CCCC2CC(NC(=O)Nc2ccccc2C)C3)cc1` (stereo not shown), the “hERG current change (%, negative = inhibition) at 10uM” value is -59%. For `CC1CCCN(C(=O)C2CCN(CC3CC=CCC3)CC2)C1.O=C(O)C(=O)O` (stereo not shown), the “hERG current change (%, negative = inhibition) at 10uM” value was -18.7%. As to `CNC(=S)N/N=C/c1cc(C)ccc1C`, the “hERG current change (%, negative = inhibition) at 10uM” value is 20.7%. For `C/C(Cl)=C\Cn1c(N2CCCCCC2)nc2c1c(=O)n(C)c(=O)n2C`, the “hERG current change (%, negative = inhibition) at 10uM” value is reported as -7.56%. The result for `COc1cccc(N(C(=O)c2snc(C(N)=O)c2N)C(C(=O)NCC2CCCO2)c2cccs2)c1` (stereo not shown) reads 7.78%; that for `Cc1ccc(S(=O)(=O)N2CCC(=O)N(CCOCc3cccc(C)c3)CC2)cc1`, -23.1%.

For `O=C(Nc1ccc(C(=O)O)c(O)c1)c1ccccc1`, the “hERG current change (%, negative = inhibition) at 10uM” value was 8.92%. As for `CCCCCCNC(=O)c1ncn[nH]1`, the “hERG current change (%, negative = inhibition) at 10uM” value stood at 29.8%. As for `O=C(NCc1ccccc1)C(c1ccc(O)cc1)N(C(=O)Cn1nnc(-c2cccs2)n1)c1ccc2c(c1)OCCO2` (stereo not shown), the “hERG current change (%, negative = inhibition) at 10uM” value stood at 1.78%. To `Cn1c(=O)[nH]c(=O)c2c1nc(N1CCC(Cc3ccccc3)CC1)n2Cc1ccccc1` belongs 5.25%; to `Cc1ccc(-c2c(C(=O)N/N=C/c3ccncc3)nnn2-c2nonc2N)cc1`, 15.3%. Regarding `O=C(Cn1ncc2c3ccccc3n(Cc3ccccc3)c2c1=O)NCc1ccccn1`, the “hERG current change (%, negative = inhibition) at 10uM” value was determined as 9.2%.

Turning to `COc1ccc(CC(=O)N(C)CC(=O)Nc2ccc(F)cc2)cc1S(=O)(=O)N1CCOCC1`, the “hERG current change (%, negative = inhibition) at 10uM” value was -7.03%. Consider `CCC1SC(N)=NC1=O` (stereo not shown), for which the “hERG current change (%, negative = inhibition) at 10uM” value was 8.1%. The result for `COc1ccc(OC)c(N(CC(=O)Nc2cccnc2)S(=O)(=O)c2ccc(OC)c(OC)c2)c1` reads -17.9%; that for `C=CCOc1cccc(C2/C(=C(/O)c3ccc(C)cc3)C(=O)C(=O)N2CCN2CCOCC2)c1` (stereo not shown), -8.04%. In the case of `CCOC(=O)N1CCC(NC(=O)CN2C(=O)COc3ccc(C(C)(C)C)cc32)CC1`, the “hERG current change (%, negative = inhibition) at 10uM” value was -15%. As to `CCCCn1c(SCC(=O)Nc2nnc(C)s2)nc2c1c(=O)n(C)c(=O)n2C`, the “hERG current change (%, negative = inhibition) at 10uM” value is listed as -12.4%. The result for `COC(=O)c1ccc(Cn2c(O)c(N=NC(N)=S)c3ccccc32)o1` reads 15.9%; that for `COc1ccc(-c2cn(-c3ccc(C)cc3)c(=O)n2CC(=O)Nc2cccc(F)c2)cc1`, 15.6%. The result for `COC(=O)C(O)(c1ccc(NC(=S)NC(=O)c2ccc(Cl)cc2Cl)cc1)C(F)(F)F` (stereo not shown) reads 5.05%. The result for `O=C(c1ccco1)N1N=C(c2ccc(Br)cc2)CC1c1ccco1` (stereo not shown) reads 18.5%. Consider `COc1nc(-c2cccc([N+](=O)[O-])c2)nc2ccccc12`, for which the “hERG current change (%, negative = inhibition) at 10uM” value is recorded as 16.2%. In the case of `CC(=O)c1ccccc1OC(=O)c1ccco1`, the “hERG current change (%, negative = inhibition) at 10uM” value was found to be 2.25%. To `CCOc1ccc(NC(=O)C2C3CC/C=C\CCC32)cc1` (stereo not shown) belongs 9.01%; to `COc1ccc(S(=O)(=O)NNC(=O)c2cc3ccccc3o2)cc1`, 25.6%; to `O=C(Nc1ccc(-c2cn3ccccc3n2)cc1)c1ccc(Cl)cc1`, -3.32%.

For `Cn1c(SCc2ccc([N+](=O)[O-])cc2)nc2c(c1=O)SCC2`, the “hERG current change (%, negative = inhibition) at 10uM” value is listed as -67.5%.

`Cc1cc(NC(=S)Nc2cccc3ccccc23)n[nH]1`: the “hERG current change (%, negative = inhibition) at 10uM” value came to 16.7%.

For the compound `CN1CCN(NC(=O)/C=C/c2ccc(Br)cc2)CC1`, the “hERG current change (%, negative = inhibition) at 10uM” value is on record as -16.2%.

Regarding `COC(=O)c1ccc(COc2ccc3c(c2)CCC3)o1`, the “hERG current change (%, negative = inhibition) at 10uM” value is recorded as 2.33%. To `C=CCNc1nc(NC(C)(C)CO)nc(OC)n1` belongs 4.15%.
